“Also recorded” adds a separate entry of the source. At least one peptide structure holds a part that was inferred or is arguable (an end, a ring closure or a residue). Some entries repeat one wording, which the source may state once for all of them. Bridge positions count the residues as written; N and C are the ends. Square brackets hold non-standard residues; d marks the D form. Ends that are not written are not given here. Peptide text beside a SMILES is read from it. I, II: the chains in the order shown.
Assays:
[1] = system: plasmid pTG11236; assay: Gel retardation assay (DNA-binding activity)
[2] = system: HeLa cells; assay: Transfection in vitro, luciferase activity, HeLa cells; assay type: cell-based; conditions: for transfection / gene transfer efficiency in vitro: 50 ng pTG11236, increasing amounts of peptide
[3] = Liposome leakage assay on POPC/cholesterol liposomes; assay type: biochemical; conditions: for calcein release: POPC/chol liposomes; for liposome leakage activity: POPC/Chol (3:2, mol:mol) liposomes, derivatives at pH7
[4] = system: B6SJL mice; conditions: intravenous, 50 or 60 µg pTG11236 complexed with peptide, day 1
Method: Indicated amounts of the luciferase expression plasmid pTG11236 were mixed with ppTG1 and /or pcTG90/DOPE. […] Muscles, tumors or organs were recovered at the indicated points of time, macerated and tested for luciferase activity with the luciferase assay kit from Promega.
After 20 min incubation at room temperature, the complexes were intravenously injected into B6SJL mice. Mice were sacrificed at day 1. The lungs were recovered, total protein was extracted and luciferase activity was analysed.
The potential of gene transfer with mono-component peptide vectors was investigated in vivo. […] Five mice per group were intravenously injected, the animals were sacrificed at day 1 after injection. Lungs were tested for luciferase activity.

[5] = pH 5 compared with pH 7; cited from earlier work
[6] = Liposome leakage assay with POPC liposomes containing calcein; assay type: biochemical; conditions: pH5 and pH7, Figures 1A/1B
[7] = system: 293-EBNA cells; assay: Transfection in vitro, luciferase activity, 293-EBNA cells; assay type: cell-based
[8] = system: WiDr, MDA-MB-4355, SW480 and LoVo; assay: Transfection in vitro of human tumor cell lines; assay type: cell-based; conditions: 500ng or 50ng pTG11236, luciferase day 1
[9] = system: HeLa cells; assay: Transfection of HeLa cells in the presence of Bafilomycin A; assay type: cell-based; conditions: 175 nM Bafilomycin A, 150 ng pTG11236

CC(C)C[C@H](NC(=O)CN)C(=O)N[C@@H](Cc1ccccc1)C(=O)N[C@@H](CCC(=O)O)C(=O)N[C@@H](C)C(=O)N[C@@H](CC(C)C)C(=O)N[C@@H](CC(C)C)C(=O)N[C@@H](CCC(=O)O)C(=O)N[C@@H](CC(C)C)C(=O)N[C@@H](CC(C)C)C(=O)N[C@@H](CCC(=O)O)C(=O)N[C@@H](CO)C(=O)N[C@@H](CC(C)C)C(=O)N[C@@H](Cc1c[nH]c2ccccc12)C(=O)N[C@@H](CCC(=O)O)C(=O)N[C@@H](CC(C)C)C(=O)N[C@@H](CC(C)C)C(=O)N[C@@H](CC(C)C)C(=O)N[C@@H](CCC(=O)O)C(=O)N[C@@H](C)C(=O)N[C@@H](CSSC[C@H](N)C(=O)N[C@@H](Cc1ccc(O)cc1)C(=O)N[C@@H](CCCCN)C(=O)N[C@@H](C)C(=O)N[C@@H](CCCCN)C(=O)N[C@@H](CCCCN)C(=O)N[C@@H](CCCCN)C(=O)N[C@@H](CCCCN)C(=O)N[C@@H](CCCCN)C(=O)N[C@@H](CCCCN)C(=O)N[C@@H](CCCCN)C(=O)N[C@@H](CCCCN)C(=O)N[C@@H](Cc1c[nH]c2ccccc12)C(=O)N[C@@H](CCCCN)C(=O)N[C@@H](CCCCN)C(=O)N[C@@H](CCCCN)C(=O)N[C@@H](CCCCN)C(=O)N[C@@H](CCC(N)=O)C(=O)N[C@@H](CO)C(=O)O)C(=O)O [JTS-1-K13, reference compound] (I: H-GLFEALLELLESLWELLLEAC-OH / II: H-CYKAKKKKKKKKWKKKKQS-OH; disulfide I:21-II:1)
retardation of plasmid ([1]; 3µg (0,6 nmol) peptide, 3µg pTG11236): > 95%
transfection ([2]; 0.05µg plasmid DNA pTG11236): remains low
luciferase expression ([2]; 0.5µg pTG11236 complexed with 1.5µg peptide): high level of luciferase expression
calcein release ([3]; pH5, Figure 9A): low level release
calcein release ([3]; pH7, Figure 9A): impeded in calcein release

CC(C)C[C@@H](NC(=O)CN)C(=O)N[C@H](Cc1ccccc1)C(=O)N[C@H](CCCNC(=N)N)C(=O)N[C@H](C)C(=O)N[C@H](CC(C)C)C(=O)N[C@H](CC(C)C)C(=O)N[C@H](CCCNC(=N)N)C(=O)N[C@H](CC(C)C)C(=O)N[C@H](CC(C)C)C(=O)N[C@H](CCCNC(=N)N)C(=O)N[C@H](CO)C(=O)N[C@H](CC(C)C)C(=O)N[C@H](Cc1c[nH]c2ccccc12)C(=O)N[C@H](CCCNC(=N)N)C(=O)N[C@H](CC(C)C)C(=O)N[C@H](CC(C)C)C(=O)N[C@H](CC(C)C)C(=O)N[C@H](CCCNC(=N)N)C(=O)N[C@H](C)C(=O)O [ppTG20-D] (H-G[dL][dF][dR][dA][dL][dL][dR][dL][dL][dR][dS][dL][dW][dR][dL][dL][dL][dR][dA]-OH)
transfection / gene transfer efficiency in vitro ([2]; HeLa cells): retained; also recorded: as efficient as ppTG1
gene transfer efficiency in the lung [4]: even higher than with ppTG1; also recorded: even more efficient than ppTG20
liposome leakage activity [3]: retained

CGLFKALLKLLKSLWKLLLKA [ppTG23]
liposome leakage activity [3]: slightly reduced membrane destruction

GIFKAIIKIIKSIWKIIIKA [ppTG30]
transfection / gene transfer efficiency in vitro ([2]; HeLa cells): diminished gene transfer efficiency in vitro; also recorded: reduced the efficiency of gene transfer

GIFRAIIRIIRSIWRIIIRA [ppTG31]
transfection / gene transfer efficiency in vitro ([2]; HeLa cells): diminished gene transfer efficiency in vitro; also recorded: reduced the efficiency of gene transfer
liposome leakage activity [3]: slightly reduced liposome leakage activity

GLFEALLELLESLWELLLEA [JTS-1, reference compound]
lysis of liposomes at pH 5 [5]: more efficiently than at a pH 7
Retardation of plasmid DNA ([1]; 3µg pTG11236 and 0.1µg to 10µg peptide): not observed
calcein release ([3]; pH5, Figure 9A): high lysis activity
calcein release ([3]; pH7, Figure 9A): reduced

GLFHALLHLLHSLWHLLLHA [ppTG21]
transfection / gene transfer efficiency in vitro ([2]; HeLa cells): strongly reduced
liposome leakage activity [3]: comparable to ppTG1

GLFKALLKLLKSLWKLLLKA [ppTG1]
membrane disruption (calcein release) [6]: capable of causing membrane disruption
transfection efficiency ([7]; 0.05 µg pTG11056 mixed with 0.065 µg ppTG1, charge ratio around 1): high transfection efficiency
luciferase activities ([7]; 0.5 µg pTG11056 complexed with 0.65 µg ppTG1, charge ratio around 1): higher than those observed with complexes formed with Lipofectin or PEI
transfection of human tumor cell lines [8]: successfully transfected; also recorded: can efficiently transfect human tumor cell lines
luciferase activities ([2]; 0.05 µg pTG11236, mixed in 0.9% NaCl): higher luciferase activities than observed for Lipofectin formulations
factor of increase of luciferase activity versus pcTG90/DOPE alone ([2]; 50ng pTG11236 complexed with 0.9µg ppTG1 and 0.1µg JTS1, final charge ratio 5): about 1000
improvement of the transfection efficiency of pcTG90/DOPE by addition of ppTG1 ([2]; 50ng plasmid, final charge ratio 3, 5 and 10, ppTG1 contributing 1/3, 1/5 and 1/10 of the positive charge): at least 1 log
improvement of the transfection efficiency of pcTG90/DOPE by addition of ppTG1 ([2]; 50ng plasmid, final charge ratio 5 and 10, ppTG1 contributing 2/3 and 7/10 of the positive charge): 2 log
transfection, ppTG1 alone compared with pcTG90/DOPE alone ([2]; 50ng plasmid, final charge ratio of 3): better results than pcTG90/DOPE alone
transfection efficiency compared with JTS-1-K13 ([2]; 0.5 µg or 0.05 µg pTG11236): better transfection reagent than JTS-1-K13
luciferase activities ([2]; 0.5 µg or 0.05 µg pTG11236 with 1.17 µg or 0.117 µg ppTG1, charge ratio 1.8): comparable luciferase activities as observed for DNA formulated with Lipofectin
transfection efficiency in the presence of Bafilomycin A [9]: not diminished; also recorded: did not influence
liposome leakage activity [3]: destabilizes efficiently
calcein release ([3]; pH5, Figure 9A): could efficiently liberate calcein
calcein release ([3]; pH7, Figure 9A): could efficiently liberate calcein

GLFKKLLKLLKKLWKLLLKA [ppTG28]
transfection / gene transfer efficiency in vitro ([2]; HeLa cells): comparable to ppTG1 and ppTG20; also recorded: did not change transfection efficiencies
liposome leakage activity [3]: comparable to ppTG1 and ppTG20; also recorded: slightly reduced liposome leakage activity

GLFRALLRLLRSLWRLLLRA [ppTG20]
transfection / gene transfer efficiency in vitro ([2]; HeLa cells): comparable to that of ppTG1
gene transfer efficiency in the lung [4]: even higher than with ppTG1; also recorded: at least comparable to gene transfer with the optimized lipoplexes; also recorded: higher gene expression; also recorded: more efficient gene transfer than ppTG1
liposome leakage activity [3]: comparable to ppTG1

GLFRRLLRLLRRLWRLLLRA [ppTG29]
transfection / gene transfer efficiency in vitro ([2]; HeLa cells): comparable to ppTG1 and ppTG20; also recorded: did not change transfection efficiencies
liposome leakage activity [3]: comparable to ppTG1 and ppTG20; also recorded: slightly reduced liposome leakage activity

GVFKAVVKVVKSVWKVVVKA [ppTG32]
transfection / gene transfer efficiency in vitro ([2]; HeLa cells): diminished gene transfer efficiency in vitro
gene transfer efficiency in the lung [4]: drastically reduced gene transfer efficiency; also recorded: did not lead to detectable reporter gene expression
liposome leakage activity [3]: diminished liposome leakage activity; also recorded: significantly reduced liposome leakage activity

GVFRAVVRVVRSVWRVVVRA [ppTG33]
transfection / gene transfer efficiency in vitro ([2]; HeLa cells): diminished gene transfer efficiency in vitro
liposome leakage activity [3]: diminished liposome leakage activity; also recorded: significantly reduced liposome leakage activity

WEAKLAKALAKALAKHLAKALAKALKACEA [KALA, reference compound]
gene transfer at optimal charge ratio, fold lower than for ppTG1 ([2]; HeLa cells, 50 ng pTG11236): 200 fold
best charge ratio for gene transfer ([2]; HeLa cells, 500ng and 50ng pTG11236, charge ratio +/-): 7
gene transfer at optimal charge ratio, fold lower than for ppTG1 ([2]; HeLa cells, 500ng pTG11236): 4 fold
gene transfer efficiency in the lung [4]: undetectable; also recorded: inefficient
liposome leakage activity [3]: no activity
calcein release ([3]; pH5, Figure 9A): could not liberate calcein
calcein release ([3]; pH7, Figure 9A): could not liberate calcein
